Structures can show the parent of a compound that is named as a salt. This is one part of the list. Most values come without repeats; read them as rough. Starred links: 1 amine or outer side, 2 acyl side, 3 side chain; linkers in the order of their positions; H or OH if unused. Positions of bridges follow the written chain, without caps; N, C: chain ends. Non-standard residues stand in square brackets, D forms with d. Residues, ends and D or L forms follow the SMILES beside them. ξ: configuration not given here. *: point of attachment. X1 = N=C1NCCC([C@H](N[*:1])C(=O)[*:2])N1; ΔAla(Z-3-ureido) = NC(=O)N/C=C(\N)C(=O)O; ξβ3hOrn = NCCCC(N)CC(=O)*; Dap = NC[C@H](N)C(=O)O

We go through 27 compounds from the supplement of paper PMC8821664.
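Further: monoclonal Beas-2B line stably carrying CMV promoter-driven AQP5-HiBiT, 5,000 cells per well in 384-well plates, lytic HiBiT plus LgBiT NanoLuc luminescence, FDA-approved drug library screen.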

This test concerns Beas-2B AQP5-HiBiT reporter cells. The test is described as follows: AQP5-HiBiT luminescence relative to vehicle (ratio to vehicle); higher = higher AQP5-HiBiT protein abundance. The settings on record: 10 µM; 18 h. A general note: With HiBiT, luminescence reflects the tagged protein that the partner subunit can reach.
With `CCC[C@H](N[C@@H](C)C(=O)N1[C@H](C(=O)O)C[C@@H]2CCCC[C@@H]21)C(=O)OCC` [Perindopril erbumine], the AQP5-HiBiT luminescence turned out to be 1.24. In the case of `CC(=O)NO` [Acetohydroxamic acid], the AQP5-HiBiT luminescence was found to be 0.676. For the compound `OC[C@H]1O[C@@H](c2ccc(Cl)c(Cc3ccc(O[C@H]4CCOC4)cc3)c2)[C@H](O)[C@@H](O)[C@@H]1O`, the AQP5-HiBiT luminescence was 0.643. Consider `CC(=O)O[C@H]1CC[C@@]2(C)C(=CC[C@@H]3[C@@H]2CC[C@]2(C)C(c4cccnc4)=CC[C@@H]32)C1` [Abiraterone Acetate], for which the AQP5-HiBiT luminescence worked out at 0.57. Consider `OC(CCCN1CCCCC1)(c1ccccc1)c1ccccc1` [Diphenidol hydrochloride], for which the AQP5-HiBiT luminescence came out at 0.874. Under `Nc1ccc(S(=O)(=O)c2ccc(N)cc2)cc1` [Sulphadione] stands 0.894; under `O=C(O)c1cn(C2CC2)c2cc(N3CCNCC3)c(F)cc2c1=O` [Ciprofloxacin], 1.26. Turning to `CC(C)C[C@H](NC(=O)CNC(=O)c1cc(Cl)ccc1Cl)B(O)O` [MLN2238(Ixazomib)], the AQP5-HiBiT luminescence was 37.3. Consider `C=C[C@H]1CN2CC[C@H]1C[C@@H]2[C@@H](O)c1ccnc2ccc(OC)cc12` [Quinidine hydrochloride], for which the AQP5-HiBiT luminescence amounted to 1.14. As to `C[C@@H]1NC(=O)[C@@H](N)CNC(=O)[C@H](C2CCNC(=N)N2)NC(=O)/C(=C/NC(N)=O)NC(=O)[C@H](CNC(=O)CC(N)CCCN)NC1=O.N=C1NCCC([C@@H]2NC(=O)/C(=C/NC(N)=O)NC(=O)[C@H](CNC(=O)CC(N)CCCN)NC(=O)[C@H](CO)NC(=O)[C@@H](N)CNC2=O)N1` (stereo partly drawn) [Capastat sulfate] (H-[Dap]S[Dap](ξβ3hOrn)[ΔAla(Z-3-ureido)][X1]; lactam 1-C), the AQP5-HiBiT luminescence was 0.763. Next, `CCC(=O)O[C@@H](O[P@](=O)(CCCCc1ccccc1)CC(=O)N1C[C@H](C2CCCCC2)C[C@H]1C(=O)O)C(C)C` [Fosinopril sodium]: 0.993; `CCCN(CCC)CCc1cccc2c1CC(=O)N2` [Ropinirole hydrochloride]: 1.13.

Regarding `CCCCC(=O)O[C@]1(C(=O)CO)[C@@H](C)C[C@H]2[C@@H]3CCC4=CC(=O)C=C[C@]4(C)[C@@]3(F)[C@@H](O)C[C@@]21C` [Betamethasone 17-valerate], the AQP5-HiBiT luminescence came out at 0.938. On to `COc1ccc2cc([C@H](C)C(=O)O)ccc2c1` [Naproxen sodium], for which the AQP5-HiBiT luminescence stood at 0.639. Regarding `COC1=CC(=O)C[C@@H](C)[C@]12Oc1c(Cl)c(OC)cc(OC)c1C2=O` [Griseofulvin], the AQP5-HiBiT luminescence is 1.08.

As to `CN(C)CCCN1c2ccccc2CCc2ccc(Cl)cc21` [Clomipramine hydrochloride], the AQP5-HiBiT luminescence was 0.903. On to `COc1cc([C@@H]2c3cc4c(cc3[C@@H](O[C@@H]3O[C@@H]5CO[C@@H](C)O[C@H]5[C@H](O)[C@H]3O)[C@H]3COC(=O)[C@H]23)OCO4)cc(OC)c1O` [Etoposide], for which the AQP5-HiBiT luminescence was 0.559. Regarding `COc1cccc2c1C(=O)c1c(O)c3c(c(O)c1C2=O)C[C@@](O)(C(=O)CO)C[C@@H]3O[C@H]1C[C@H](N)[C@H](O)[C@H](C)O1` [Doxorubicin (Adriamycin)], the AQP5-HiBiT luminescence turned out to be 1.26. As to `C[C@@H](NCCCc1cccc(C(F)(F)F)c1)c1cccc2ccccc12` [Cinacalcet hydrochloride], the AQP5-HiBiT luminescence turned out to be 0.756. `C[C@H]1[C@H](NC(=O)/C(=N\OC(C)(C)C(=O)O)c2csc(N)n2)C(=O)N1S(=O)(=O)O` [Aztreonam]: the AQP5-HiBiT luminescence is 0.879. With `CCCCCN(C)CCC(O)(P(=O)(O)O)P(=O)(O)O` [Ibandronic acid], the AQP5-HiBiT luminescence amounted to 0.987. `C[C@H]1O[C@H](O[C@H]2[C@H](O)[C@@H](O)[C@@H](O[C@H]3[C@H](O)[C@@H](O)C(O)O[C@@H]3CO)O[C@@H]2CO)[C@H](O)[C@@H](O)[C@@H]1N[C@H]1C=C(CO)[C@@H](O)[C@H](O)[C@H]1O` (some centres not stated) [Acarbose]: the AQP5-HiBiT luminescence was 0.909.

Consider `CN1CC2c3ccccc3Oc3ccc(Cl)cc3C2C1` (configuration not stated) [Asenapine Maleate], for which the AQP5-HiBiT luminescence is 0.794. On to `CCCCS(=O)(=O)N[C@@H](Cc1ccc(OCCCCC2CCNCC2)cc1)C(=O)O` [Tirofiban hydrochloride monohydrate], for which the AQP5-HiBiT luminescence was determined as 0.615. With `CCCCCCCCCCC[C@@H](C[C@@H]1OC(=O)[C@H]1CCCCCC)OC(=O)[C@H](CC(C)C)NC=O` [Orlistat], the AQP5-HiBiT luminescence is 1.23. For `c1ccc(CN(CC2=NCCN2)c2ccccc2)cc1` [Antazoline hydrochloride], the AQP5-HiBiT luminescence was 0.829. In the case of `C[N+]1(C)[C@@H]2C[C@@H](OC(=O)C(O)(c3cccs3)c3cccs3)C[C@H]1[C@@H]1O[C@@H]12` [Tiotropium bromide], the AQP5-HiBiT luminescence was found to be 1.05.
